According to the RNAGym collection of RNA variant scans (doi:10.7554/elife.90254):
Read counts are not given, so values of variants with three or more changes are uncertain.

B1: LINE1-mini (parent)
chain: GGCAGAGCUCAACACAGCGUGGCAAAGUGGCUGUGGCUAGACUGCC

Variants of: B1
Experiment: self-cleavage, relative activity (ratio to wild type); higher = more cleavage; in vitro, sequencing; the parent is a self-cleaving ribozyme

Variant	self-cleavage
G2C A16U C23A U28A C46U	0.01
C3U C13A U20C A26C G30U G36U	0.09
C8U A16G G33A U43A	0.07
G7U C8U C10A G27C	0.02
A4U C8A C18U	0.26
G19U C23A A24C G33C	0.08
A14U G21A U38G	0.01
G2U G7U A12C U20A G21U	0.02
U20A G29U A41U	0.08
C8U U9A C15G	0.28
A12U G29C G33A U38G	0
G1A A26C G30U	1.56
U9G A12C A24C U34C G36U U38G	0.01
C10G A25C U28C	0.05
G30U G36U G40C	0.23
C8U A16G C37U	0.04
G1A U32C U34C	0.04
C15U A16G G35A A41C	0.05
C10A A11U G29U G36A	0.02
G5A C31G U38A U43G	0.02
G30A C42U G44C	0.08

Variant	self-cleavage
G1A C3G A6U C31U	0.66
C3U C13G C15U G35U C46A	0.04
G17U G30U C46U	0.02
G7A U9C A25U	0.06
G1A G19U A24U A26U U28A U34G	0.12
U9G G19A G36A	0.56
G2U A11U U20A A26G G40A	0.01
A4G G5C C15U U32C G33A	0.04
G27U U28C U43A	0.16
U9G C18G C45G	0.09
G1U G5U G36U	0.07
A16U U28G C31A	0.25
C18G A24G G40U	0
C3G A4U C10U G36A	0.21
G2U C13A A16G G17C	0.06
G1U G2A C31U	0.03
U9A U20A G29C	0.04
G2U A16G C23A G36A A39U G40U	0.03
G29U G33C C42U	0.09
G5C G7A C8A C10G C13G G21C C37G U43G	0.01
G1U G36U C45A	0.04

Variant	self-cleavage
A24C C31U U34G	0.08
G17A G21A G22C	0.25
G2C C3A G22U A24U	0.96
G1U U34C U43G	0
C8A C10U C37A A41G C46A	0.01
G7U G22U G35U C45G	0.22
C3U A11C U38A	0.02
C10A G21U G22C G40A	0.02
A12U A14C U20A G30C C46G	0.01
G1U G22C A26C G36C A41U	0.03
C10G U28G A39G	0
G1U A6C A16U U20C	0.04
G17A G29A G40A	0.01
C8A G30A A41U	0.26
C3A G5U A6G U28A C31U A39C	0.19
C8U C10U A39C	0.08
C13U C15A U38G	0.03
U20C G33C G36A A41C	0.05
A14C G17U A25C G40A A41C	0
G17U A25U G27C C37U	0.05
G22U A26G U28G C37U G40C C46G	0.13

Variant	self-cleavage
C15G A16U A24C G27C C45U	0.01
C13G C31U U43C	0.01
G1C G7C G29U U38A G44A	0.08
G1A C13G U34C	0.07
G2U C23A A24G U28C G30C A41G U43C	0
G2U A24G G40A G44A	0.07
C10U U20C G30U C46A	0.2
G35A A41U U43A	0.04
A41U C42A C46G	0.01
C10A U34G G35C C45A	0.01
A14U A24C U38A	0.07
G2C C8G G44C	0.04
G5A G17C A39U	0.12
A6G A16U G27C	0.02
G1A C3G C45U	0.46
G2A A6U C8A U32A C37G G40U C42U G44U	0.22
G7A G30C G36A	0.38
C3U C8A G17A G21U G27C G35C G36U C42U	0.07
A12C G33C C37G	0.01
G5A C13U A14G	0.03
C13U C31U C42G G44A	0.02
